From PubChem BioAssay AID1240 (Sanford-Burnham Center for Chemical Genomics, 2008)
The campaign covered roughly 50,000 compounds. About 800 (1.6%) showed an effect of 50% or more. Some of the results follow.

Target: Bcl-2-like protein 10 (Homo sapiens) (UniProt Q9HD36)
Assay: TR3 peptide-Bcl-B binding displacers, biochemical primary FP assay, phenotype converters (AID 1240);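 note: 0% = Bcl-B with tracer peptide and DMSO and 100% = tracer peptide lacking Bcl-B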
Conditions: GST-Bcl-B / FITC-TR3 peptide fluorescence polarization; stronger effect = higher value; compound at 3.75 mg/L

UniProt Q9HD36, sequence (Q9HD36 whole entry, looked up): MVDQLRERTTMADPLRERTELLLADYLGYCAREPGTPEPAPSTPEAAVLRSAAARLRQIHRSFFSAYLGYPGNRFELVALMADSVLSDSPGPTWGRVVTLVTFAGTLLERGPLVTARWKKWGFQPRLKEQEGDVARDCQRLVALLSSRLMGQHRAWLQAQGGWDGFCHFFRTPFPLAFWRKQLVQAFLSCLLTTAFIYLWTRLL

Compound | displacement [%]
O=C(CCN1C(=O)c2ccccc2C1=O)Nc1ccccc1C(=O)N1CCOCC1 | 10
CC1CCN(C(=O)c2ccccc2[N+](=O)[O-])CC1 | 13.9
Cc1ccc(S(=O)(=O)NN2C(=O)/C(=C/c3ccc(F)cc3)SC2=S)cc1 | 2
Cc1c(C(=O)Nc2ccccc2C(N)=O)cccc1[N+](=O)[O-] | 17.8
NC(=O)c1cccc(NC(=O)c2ccccc2C(=O)O)c1 | -13.5
Cc1cccc2c1[nH]c1nc(SCC(C)C)nnc12 | 10.4
Cc1ccc(OCCOCCOc2ccccc2/C=C2/SC(=S)NC2=O)cc1 | 9.8
CCN(CC)C(=O)CSc1nc(C)cc(=O)[nH]1 | -4.5
CC(C)C(=O)N1c2ccccc2C(N(C(=O)c2ccc([N+](=O)[O-])cc2)c2ccccc2)CC1C (centres undefined) | 16.1
NC(=O)c1c(/N=C/c2cc(Cl)cc(Cl)c2O)sc2c1CCCC2 | -5.9
O=C(COc1ccccc1)N1CCN(C(=O)Cc2ccccc2)CC1 | -1.8
O=[N+]([O-])c1ccccc1/C=N/Nc1nc(-c2ccccc2)cc(-c2ccccc2O)n1 | -6.1
CCOC(=O)C1=C(C)N=C2SC(C)C(=O)N2C1c1ccc(OC)cc1 (centres undefined) | -10.9
CC1CCN(C(=O)c2ccccc2N(Cc2ccccc2)S(=O)(=O)c2ccccc2)CC1 | -1
Cc1ccc(S(=O)(=O)NC(=O)NC(C)c2ccccc2)cc1 (centres undefined) | 7.4
Cc1ccc(OCC(=O)Nc2nccs2)c(C)c1 | -3.9
O=C1C2C(C(=O)N1c1cc(C(F)(F)F)ccc1Cl)C1C=CC2C12CC2 (centres undefined) | 15.9
Cc1cc(C(=O)Nc2ccc3nn(-c4ccccc4)nc3c2)ccc1[N+](=O)[O-] | 0.7
Cc1cc(OCCCCCCN2CCCC2)cc(C)c1Cl | 9.3
Cc1ccc(-c2nc3ccccc3o2)cc1NC(=O)c1ccco1 | 3.1
COc1ccccc1/C=C/C=NN1CCN(Cc2ccccc2Cl)CC1 | 0.1
COc1ccc(OC)c(N(CC(=O)Nc2cccc(C(F)(F)F)c2)S(C)(=O)=O)c1 | 13.1

Compound | displacement [%]
O=C(CCCOc1ccc(Cl)cc1Cl)Nc1ccc([N+](=O)[O-])cc1 | 13.7
O=C1/C(=C/c2cn(Cc3ccccc3Cl)c3ccccc23)Sc2ccccc21 | 49
Cc1ccccc1C(=O)Nc1cccc(NC(=O)c2ccc(-c3ccc(Br)cc3)o2)c1 | 21.4
CC(C)(C)NC(=O)CN(c1ccc(Br)cc1)S(C)(=O)=O | 10.6
O=c1[nH]cnc2scc(-c3ccc(-c4ccccc4)cc3)c12 | 14.2
Cc1ccc(C)c(NC(=O)COc2cccc(C)c2C)c1 | -2.5
COc1cc(/C=C2\SC(=S)N(c3cccc(C(F)(F)F)c3)C2=O)cc(OC)c1OC | -7
Cc1ccc(-c2ccc(OCC(=O)N3CCCc4ccccc43)cc2)cc1 | 59.3
O=Cc1ccc(OC(=O)c2sc3ccccc3c2Cl)cc1 | 16.3
C=COCCNC(=O)C(=O)Nc1ccc(C)cc1 | 1
Cc1ccc(OCC(=O)Nc2ccc(C(=O)Nc3cccc(O)c3)cc2)cc1C | -7.9
COc1ccc2c(c1)OCC/C2=N\OC(=O)c1cccc(Br)c1 | -8.4
Cc1cc(OCC(=O)O/N=C(\N)c2ccc([N+](=O)[O-])cc2)ccc1Br | 0.7
Cc1sc(NC(=O)/C=C\C(=O)O)nc1-c1ccccc1 | -5.8
O=[N+]([O-])c1cccc(S(=O)(=O)NC2C3CC4CC(C3)CC2C4)c1 (centres undefined) | 4.7
CCOc1ccc(C(=O)Nc2ccc(N(CC)CC)cc2)cc1 | 13.6
CCOc1ccc(C(=O)Nc2ccc(-c3nc4ccccc4s3)cc2)cc1[N+](=O)[O-] | 3.4
O=C(COC(=O)C1CCCN1C(=O)Oc1ccccc1)c1ccc([N+](=O)[O-])cc1 (centres undefined) | 6.4
COc1ccccc1C(=O)Nc1ccc(OC(F)(F)F)cc1 | 11.2
CC(=O)Oc1ccc2c(c1)c(C(C)=O)c(C)n2-c1ccccc1 | -2
COc1ccc(-c2cc(=O)oc3cc(O)ccc23)cc1 | 0.7
Cc1ccc(NC(=O)CSc2ncn[nH]2)cc1 | 8.2

Compound | displacement [%]
Cc1ccc(Cl)cc1NC(=O)CSc1nnnn1-c1ccccc1 | 1.8
Fc1cc(F)c(F)c(SCCc2ccncc2)c1F | 5.9
Oc1c(Br)cc(Cl)cc1/C=N/Nc1nnc2c(n1)[nH]c1ccccc12 | 24
CCc1cc(=O)oc2cc(OCC(=O)O)ccc12 | -6.3
O=C(Nc1nnc(-c2ccc(F)cc2)s1)c1ccc(Cl)cc1Cl | -11.6
Cc1nn(C(=O)c2ccnn2C)c(C)c1Br | 0.4
O=S(=O)(c1cccs1)N1CCN(Cc2ccccc2)CC1 | -11.1
Cc1cc(/C=C2/SC(=S)NC2=O)c(C)n1-c1ccc(F)cc1 | -6.4
O=C(COc1ccccc1)Nc1ccc(Nc2ccccc2)cc1 | 5.2
O=C(COc1ccccc1)/C(=C(/O)c1ccccc1)c1nc2ccccc2[nH]1 | 6.5
CCCN(CCC)CCCNC(=O)C(=O)Nc1cccc(C(F)(F)F)c1 | -2.3
CCCCNC(=O)C1CC(=O)N(c2ccc(CC)cc2)C1 (centres undefined) | 3.5
COc1ccccc1NC(=O)c1ccn(C(=O)c2cccc(I)c2)n1 | -2.1
CCOC(=O)c1cc(Br)c(Cl)cc1[N+](=O)[O-] | -16.9
COc1ccc(N=Cc2ccc([N+](=O)[O-])s2)c([N+](=O)[O-])c1 | -1.7
CCOc1ccc2nc(N(C)C)[nH]c2c1 | 0.5
CCOC(=O)c1c(NC(=O)C2C3C=CC(C3)C2C(=O)O)sc2c1CCC2 (centres undefined) | -4.7
COC(=O)COC(=O)c1c(Cl)ccc(Cl)c1OC | 9.8
COc1ccc(/C=C2\C(=O)N(c3cccc(C(=O)O)c3)N=C2C)cc1 | -1.3
Cc1ccccc1NC(=O)CN(c1ccc(Oc2ccccc2)cc1)S(C)(=O)=O | 1.7
O=C(CO/N=C/c1ccccc1)N=Nc1c(O)[nH]c2ccc(Br)cc12 | 3
O=C(CCCN1C(=O)c2ccccc2C1=O)Nc1ccccc1C(=O)N1CCOCC1 | 11.9

Compound | displacement [%]
Cc1cccc(C(=O)NCc2ccco2)c1 | -28.7
CC(C)(C)C(=O)Nc1ccc(Cl)cc1C(=O)O | 2.5
O=C(Nc1cc(Cl)ccc1Cl)c1ccc(-c2ccc(Cl)cc2)o1 | 43
O=C(Nc1ccccc1Cl)c1ccc(CN2CCc3ccccc3C2)cc1 | 12.1
O=c1c2ccccc2nc(/C=C/c2ccc([N+](=O)[O-])cc2)n1Cc1ccccc1 | 118
CCOC(=O)Cc1csc(NC(=O)CCN2C(=O)c3cccc([N+](=O)[O-])c3C2=O)n1 | -7.4
Cc1nn(-c2ccccc2)c(C)c1/C=N/NC(=O)c1cc(-c2ccccc2)n[nH]1 | -3.8
COc1ccc(C)cc1NC(=O)c1ccccc1[N+](=O)[O-] | -1.8
O=C(COc1cccc(Cl)c1)N/N=C/c1c(Br)cc(Br)c(O)c1Br | 2.7
CCN(CC)CCCCCOc1cccc2ccccc12 | 17.3
O=[N+]([O-])c1cccc(-c2csc(N/N=C\c3cccc(O)c3)n2)c1 | 1.9
Cc1cccn2c(=O)c(/C=C3\SC(=S)N(Cc4ccco4)C3=O)c(NCCCn3ccnc3)nc12 | 8.9
O=C1/C(=C/Nc2ccccc2NS(=O)(=O)c2ccc([N+](=O)[O-])cc2)CCc2ccccc21 | 8.1
COC(=O)CN1C(c2ccccc2)=Nc2ccc(Br)cc2C1c1ccccc1 (centres undefined) | 2.2
Cc1ccc(OCCOCCOc2cccc(/C=c3\sc4nc5ccccc5n4c3=O)c2)cc1 | 11.4
O=C(NCc1ccccn1)C(Sc1ccccc1)c1ccccc1 (centres undefined) | -4.3
O=C1/C(=C\c2c(Cl)cccc2Cl)SC(=S)N1c1ccc(F)cc1 | -7.2
O=C(Nc1ccc(Cl)c(-c2nc3ccccc3o2)c1)c1cccs1 | 10.1
Cc1cccc(C(=O)NCC(C)CN(C)C)c1 (centres undefined) | 11.2
COc1ccc(OC)c(N(CC(=O)Nc2ccc(Oc3ccccc3)cc2)S(C)(=O)=O)c1 | 10.7
COc1ccc(N(CC(=O)Nc2ccccc2F)S(=O)(=O)c2ccc(OC)c(OC)c2)cc1 | -18.6
O=S(=O)(NC(=S)c1ccccc1)c1ccc(I)cc1 | 11.9

Compound | displacement [%]
C#CCSc1nc(C)cc(C)c1C#N | -8.7
CCOc1ccc(NC(=O)C2CC2(c2cccc(OC)c2)c2cccc(OC)c2)cc1 (centres undefined) | -12.9
O=C(Nc1ccc2nn(-c3cccc([N+](=O)[O-])c3)nc2c1)c1ccccc1Br | 3.7
O=C(Nc1ccccc1Cl)c1ccc2nccnc2c1 | 13.6
O=C1c2ccccc2C(=O)N1CCCCN(C(=O)c1ccc(Cl)s1)c1ccc(F)cc1F | 10.1
CCCSc1nnc2c(n1)[nH]c1c(C)cccc12 | 5.4
COc1ccc(N2C(=O)CS(=O)(=O)C2c2ccc(Cl)cc2)cc1 (centres undefined) | 2.3
O=C(O)CSc1nc2ccc([N+](=O)[O-])cc2s1 | 1.2
COc1ccc(/C=C2\C(=O)NC(=S)N(c3ccc(Br)cc3)C2=O)cc1 | 10.1
COc1ccc(C(=O)Nc2ccc(S(=O)(=O)N3CCc4ccccc43)cc2)cc1 | 7.1
CCOC(=O)c1c[nH]c2cc(C(=O)OC)ccc2c1=O | -19.8
CC(C)(C)CC(C)(C)N=C1NS(=O)(=O)c2cc([N+](=O)[O-])ccc21 | 18.1
O=C1c2ccc(Oc3cccc([N+](=O)[O-])c3)cc2C(=O)N1c1ccncc1 | -0.9
COc1ccc(C2Nc3ccccc3C(=O)N2c2ccc(C)cc2)cc1Cn1cc([N+](=O)[O-])cn1 (centres undefined) | 14.9
Cc1cc(Br)cc(C)c1NC(=O)c1c(F)cccc1F | 12.4
CCOc1ccc(C(=O)Nc2cccc(C(F)(F)F)c2)cc1Cl | -12
CC(=O)n1nc(C)c2c1C[C@@H]1[C@H]2C1(C)C | 8.6
CCOC(=O)CSCCOc1ccc(/C=C2/C(=O)NC(=O)N(c3cccc(C)c3)C2=O)cc1OC | -11.6
CCC(Sc1nc(C)cc(C)n1)C(=O)N1c2ccccc2Sc2ccccc21 (centres undefined) | 3.9
CSc1ccc(C=Nc2ccccc2C(N)=O)cc1 | -9.7
Cc1ccccc1OCC(=O)O/N=C(\N)c1ccc(Cl)cc1 | -8
